According to article PMC10333293, “Membrane recruitment of the polarity protein Scribble by the cell adhesion receptor TMIGD1” (Communications Biology, 2023):
These are yes or no findings as the source states them, for the method shown. For some assays here: In cells and extracts the contact can be indirect. Some entries that bind do so weakly or less than the wild type. For some assays here: Tags and fused reporters may be left off the sequences shown. Each block holds one molecule with its values, some of them ahead of it.

The chains behind the UniProt entries cited, without tags or fusion partners.
UniProt Q96RT1: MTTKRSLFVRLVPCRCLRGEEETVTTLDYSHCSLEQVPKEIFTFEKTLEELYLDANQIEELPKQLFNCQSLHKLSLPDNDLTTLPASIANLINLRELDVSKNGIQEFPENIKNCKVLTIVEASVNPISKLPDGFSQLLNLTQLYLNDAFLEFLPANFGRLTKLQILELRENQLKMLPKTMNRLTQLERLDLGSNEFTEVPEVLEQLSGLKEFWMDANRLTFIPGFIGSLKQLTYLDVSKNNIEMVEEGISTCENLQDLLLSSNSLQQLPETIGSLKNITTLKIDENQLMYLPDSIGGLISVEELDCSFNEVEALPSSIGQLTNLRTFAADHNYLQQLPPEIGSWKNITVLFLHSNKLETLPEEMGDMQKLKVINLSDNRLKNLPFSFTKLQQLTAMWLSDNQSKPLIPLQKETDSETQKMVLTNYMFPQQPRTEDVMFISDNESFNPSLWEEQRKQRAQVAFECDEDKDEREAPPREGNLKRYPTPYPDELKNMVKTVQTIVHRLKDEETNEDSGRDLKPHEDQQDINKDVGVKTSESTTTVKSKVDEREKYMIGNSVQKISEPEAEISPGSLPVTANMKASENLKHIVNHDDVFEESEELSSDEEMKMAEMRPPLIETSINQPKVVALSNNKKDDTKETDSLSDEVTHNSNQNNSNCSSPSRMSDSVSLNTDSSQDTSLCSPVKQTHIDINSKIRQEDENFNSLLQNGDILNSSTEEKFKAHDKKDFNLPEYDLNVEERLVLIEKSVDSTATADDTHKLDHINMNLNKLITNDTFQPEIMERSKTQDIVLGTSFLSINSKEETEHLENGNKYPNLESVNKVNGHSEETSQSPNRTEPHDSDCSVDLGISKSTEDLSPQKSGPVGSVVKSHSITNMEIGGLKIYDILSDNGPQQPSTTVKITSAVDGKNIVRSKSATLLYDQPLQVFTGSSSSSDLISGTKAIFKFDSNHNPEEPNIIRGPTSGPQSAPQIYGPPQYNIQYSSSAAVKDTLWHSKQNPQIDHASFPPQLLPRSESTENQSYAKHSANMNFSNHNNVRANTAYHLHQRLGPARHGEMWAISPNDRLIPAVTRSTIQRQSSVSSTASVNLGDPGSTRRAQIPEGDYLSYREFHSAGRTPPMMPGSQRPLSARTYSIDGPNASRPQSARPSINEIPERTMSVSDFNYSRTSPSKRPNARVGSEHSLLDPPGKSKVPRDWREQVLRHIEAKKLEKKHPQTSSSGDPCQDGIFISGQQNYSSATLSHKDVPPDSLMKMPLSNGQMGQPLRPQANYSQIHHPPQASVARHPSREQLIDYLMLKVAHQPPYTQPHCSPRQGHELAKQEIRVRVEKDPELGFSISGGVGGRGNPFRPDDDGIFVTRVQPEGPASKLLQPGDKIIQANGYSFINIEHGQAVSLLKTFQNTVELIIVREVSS
UniProt Q9BTT6: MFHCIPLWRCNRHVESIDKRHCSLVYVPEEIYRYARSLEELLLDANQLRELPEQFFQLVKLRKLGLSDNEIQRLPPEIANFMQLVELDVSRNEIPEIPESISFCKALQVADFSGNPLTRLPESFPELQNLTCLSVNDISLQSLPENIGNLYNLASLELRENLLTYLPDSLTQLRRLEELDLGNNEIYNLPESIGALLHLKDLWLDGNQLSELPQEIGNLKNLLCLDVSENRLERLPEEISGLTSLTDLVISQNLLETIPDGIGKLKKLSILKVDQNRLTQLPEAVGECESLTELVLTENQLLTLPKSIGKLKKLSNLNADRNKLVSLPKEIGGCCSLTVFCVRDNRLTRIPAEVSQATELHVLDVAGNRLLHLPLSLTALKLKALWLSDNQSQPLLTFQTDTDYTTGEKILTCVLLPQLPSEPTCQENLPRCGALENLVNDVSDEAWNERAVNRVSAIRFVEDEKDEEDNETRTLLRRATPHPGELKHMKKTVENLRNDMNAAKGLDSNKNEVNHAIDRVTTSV

Tests used:
[1] = target: T1, hTMIGD1 lacking the PDZ domain binding motif (hTMIGD1/Δ5, AA 1-258) (human) (UniProt Q6UXZ0); experiment: co-IP; HEK293 cells stably transfected with TMIGD1 constructs, endogenous Scrib; IP with antibodies against TMIGD1 or against Scrib; lysis in 25 mM Tris-HCl pH 7.4, 1% NP-40, 150 mM NaCl, 5% glycerol; 4 h at 4 °C
T1 sequence: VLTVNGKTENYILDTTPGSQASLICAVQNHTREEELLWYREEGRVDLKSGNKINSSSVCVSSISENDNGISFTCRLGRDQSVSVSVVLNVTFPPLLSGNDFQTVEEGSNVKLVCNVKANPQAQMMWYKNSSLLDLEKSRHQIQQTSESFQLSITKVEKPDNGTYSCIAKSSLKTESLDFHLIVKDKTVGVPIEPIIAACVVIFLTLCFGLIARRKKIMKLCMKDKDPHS

[2] = target: T2, hTMIGD1 full length (AA 1-262) (human) (UniProt Q6UXZ0); experiment: as above
T2 sequence: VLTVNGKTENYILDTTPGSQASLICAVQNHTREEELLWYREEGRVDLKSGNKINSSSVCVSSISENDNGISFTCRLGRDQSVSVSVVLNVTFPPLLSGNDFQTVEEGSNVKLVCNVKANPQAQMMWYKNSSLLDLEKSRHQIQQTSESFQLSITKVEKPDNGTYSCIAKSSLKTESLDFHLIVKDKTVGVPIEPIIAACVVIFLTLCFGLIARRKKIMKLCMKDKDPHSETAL

[3] = target: T2, hTMIGD1 full length (AA 1-262) (human); experiment: co-IP; HEK293 cells stably transfected with TMIGD1 constructs and transiently transfected with Scrib constructs, Erbin or Lano/LRRC1; IP with anti-TMIGD1 antibodies; in one experiment with or without TAK-243; lysis in 25 mM Tris-HCl pH 7.4, 1% NP-40, 150 mM NaCl, 5% glycerol
[4] = target: T3, GST-TMIGD1 cytoplasmic tail (AA 242-262) (human) (UniProt Q6UXZ0); experiment: pull-down; 3 µg GST fusion protein immobilised on glutathione-Sepharose 4B; 10 µl of in vitro translated 35S-methionine-labelled Scrib construct; 2 h at 4 °C in 10 mM Hepes-NaOH pH 7.4, 100 mM KCl, 1 mM MgCl2, 0.1% Triton X-100; autoradiography; only the target purified
T3 sequence: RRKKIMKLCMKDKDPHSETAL

[5] = target: T4, GST-TMIGD1/Δ5, cytoplasmic tail lacking the PDZ domain binding motif (AA 242-257) (human) (UniProt Q6UXZ0); experiment: as above
T4 sequence: RRKKIMKLCMKDKDPH

[6] = target: T5, LexA fusion of the cytoplasmic tail of TMIGD1 (AA 241-262) (human) (UniProt Q6UXZ0); experiment: two-hybrid; S. cerevisiae L40; LexA-TMIGD1 cytoplasmic tail (AA 241-262) as bait; day 9.5/10.5 mouse embryo cDNA library; selection on SD-THULL with 1 mM 3-aminotriazole, 30 °C
T5 sequence: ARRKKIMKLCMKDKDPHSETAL

[7] = target: T6, hScrib/PDZ3 (AA 1005-1094) (human, UniProt Q14160 1005-1094); experiment: ITC; peptide (900-1100 µM) titrated into PDZ domain (75 µM); 25 mM Tris-HCl pH 8.0, 150 mM NaCl, 5 mM TCEP; 25 °C; 20 injections; one-site binding model; both purified
T6 construct: Scribble, human, PDZ3 domain, AA 1005-1094; In pGEX-6P-3 or pGIL-MBP; source: E. coli BL21 (DE3) CodonPlus or pLysS, purified
T6 sequence (looked up): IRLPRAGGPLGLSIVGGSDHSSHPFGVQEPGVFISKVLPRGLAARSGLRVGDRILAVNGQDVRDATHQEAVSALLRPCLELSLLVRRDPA

hScrib/PDZ1 (AA 728-815) = target: T7, hScrib/PDZ1 (AA 728-815) (human, UniProt Q14160 728-815); experiment: as above
T7 construct: Scribble, human, PDZ1 domain, AA 728-815; In pGEX-6P-3 or pGIL-MBP; also called PDZ domain 1 of Scrib; source: E. coli BL21 (DE3) CodonPlus or pLysS, purified

[8] = target: hScrib/PDZ4 (AA 1099-1203) (human) (UniProt Q14160); experiment: as above
[9] = target: hScrib/PDZ2 (AA 833-965) (human) (UniProt Q14160); experiment: as above
[10] = target: endogenous Scrib of HEK293 cells (human (endogenous in HEK293)) (UniProt Q14160); experiment: co-IP; HEK293 cells stably transfected with TMIGD1 constructs, endogenous Scrib; IP with antibodies against TMIGD1 or against Scrib; lysis in 25 mM Tris-HCl pH 7.4, 1% NP-40, 150 mM NaCl, 5% glycerol; 4 h at 4 °C

- binding [3]: no binding
Molecule: hErbin/WT (AA 1-1412) (from UniProt Q96RT1 1-1412)

- binding [3]: no binding
Molecule: hLano/WT (AA 1-524) (from UniProt Q9BTT6 1-524)

- binding [3]: no binding
Molecule: hScrib/LRR (AA 2-727) (from UniProt Q14160 2-727) (domain or fragment)

- binding [4]: binds
Molecule: hScrib/PDZ-mut4 (AA 616-1490_L1111AG1112E) (from UniProt Q14160 616-1490) (domain or fragment)

- binding [10]: no binding
B3: hTMIGD1 lacking the PDZ domain binding motif (hTMIGD1/Δ5, AA 1-258) (receptor, UniProt Q6UXZ0 30-258)
chain: T1 sequence

The next lines start with the molecule.

Molecule: endogenous Scrib of HEK293 cells (from UniProt Q14160 1-1655)
- binding [1]: no binding
- binding [2]: binds weakly

Molecule: hScrib/PDZ-WT (AA 616-1490) (from UniProt Q14160 616-1490) (domain or fragment)
- binding [4]: binds
- binding [5]: no binding

Molecule: murine Scrib, region AA 633-836 (overlapping yeast two-hybrid library clones) (from UniProt Q80U72 633-836) (domain or fragment)
- binding [6]: binds

Molecule: DPHSEAAA [mutant TMIGD1 peptide (DPHSEAAA)]
- binding [7]: no binding (tested: domain 75 µM, peptide 900-1100 µM)
- binding (hScrib/PDZ1 (AA 728-815)): no binding (tested: domain 75 µM, peptide 900-1100 µM)
- binding [8]: no binding (tested: domain 75 µM, peptide 900-1100 µM)
- binding [9]: no binding (tested: domain 75 µM, peptide 900-1100 µM)

B1: hTMIGD1 full length (AA 1-262) (receptor, UniProt Q6UXZ0 30-262)
chain: T2 sequence
- binding [10]: binds weakly

B2: C-terminally derived 8-mer human TMIGD1 peptide (DPHSETAL) (peptide)
peptide: DPHSETAL
notes: TMIGD1, human, the eight C-terminal residues with the PBM (SETAL), free C-terminal carboxyl; also called TMIGD1/WT; TMIGD1 PBM peptide; source: synthetic peptide (Genscript)
- binding [8]: no binding (tested: domain 75 µM, peptide 900-1100 µM)
- binding [9]: no binding (tested: domain 75 µM, peptide 900-1100 µM)
